In the supplement of paper PMC4967469:
pIC50: −log10 of the molar value. IC50 is the fitted dose that halves viability relative to control wells, and lower means more sensitive; a fit beyond the top or the lowest dose is shown as a bound at that dose. AUC, from the same fit, is the share of area under the viability curve across the 256-fold dose range; values near 1 show little effect. Where the top dose is marked as inferred, it comes from the curve model; the source does not state it. For part of these data: Drugs with an entry number were screened twice under separate entries, and the two screens often disagree.

Key:
AKT inhibitor VIII = compound: O=c1[nH]c2ccccc2n1C1CCN(Cc2ccc(-c3[nH]c4cc5ncnc5cc4nc3-c3ccccc3)cc2)CC1 [AKT inhibitor VIII]; assay: Viability of human cancer cell lines after 72 h of drug (GDSC screen); conditions: top dose inferred
Experimental: (§1)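 Human cancer cell lines in 384-well plates, medium with 10% serum, drug for 72 h over a 256-fold dose range (nine 2-fold or five 4-fold steps up to the top dose). Adherent lines were fixed and stained with the nucleic acid dye Syto60, suspension lines read with resazurin; signal relative to control wells, capped at 0 and 100%. One two-parameter sigmoid per drug and line, fitted in a mixed model over all curves with the slope shared within a line.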

AICAR = compound: NC(=O)c1ncn([C@@H]2O[C@H](CO)[C@@H](O)[C@H]2O)c1N [AICAR]; assay: as above; conditions: top dose 2000 µM; top dose inferred
Experimental: as §1

[1] = top dose 2.56 µM, screen: GDSC drug entry 171
[2] = top dose 10.24 µM, screen: GDSC drug entry 228

Row | Cell Line | AUC (AKT inhibitor VIII; [1]) | pIC50 (AKT inhibitor VIII; [1]) | AUC (AKT inhibitor VIII; [2]) | pIC50 (AKT inhibitor VIII; [2]) | AUC (AICAR) | pIC50 (AICAR)
1 | SK-OV-3 (ovary, adherent) | 0.931 | < 5.59 | 0.677 | 5.64 | 0.908 | < 2.70
2 | MOLT-4 (lymphoblastic leukaemia, suspension) | 0.97 | < 5.59 | 0.422 | 6.39 | 0.649 | 3.53
3 | SKN-3 (head and neck, adherent) | 0.982 | < 5.59 | 0.983 | < 4.99 | 0.879 | < 2.70
4 | SUP-T1 (T-cell lymphoblastic leukaemia, suspension) | 0.938 | < 5.59 | 0.636 | 5.84 | 0.913 | < 2.70
5 | SNU-81 (large intestine, adherent) |  |  | 0.728 | 5.44 | 0.883 | < 2.70
6 | NCC021 (kidney, adherent) |  |  | 0.91 | < 4.99 | 0.919 | < 2.70
7 | NCI-H1437 (lung adenocarcinoma, adherent) | 0.787 | 5.93 | 0.59 | 5.94 | 0.818 | 2.93
8 | LN-229 (glioma, adherent) | 0.975 | < 5.59 | 0.933 | < 4.99 | 0.868 | 2.74
9 | VAL (B-cell lymphoma, suspension) | 0.96 | < 5.59 | 0.813 | 5.25 | 0.873 | 2.71
10 | CAL-62 (thyroid, adherent) | 0.979 | < 5.59 | 0.977 | < 4.99 | 0.936 | < 2.70
11 | SK-MM-2 (myeloma, suspension) | 0.96 | < 5.59 | 0.559 | 6.03 | 0.839 | 2.84
12 | D-392MG (glioma, adherent) | 0.924 | < 5.59 | 0.906 | < 4.99 | 0.931 | < 2.70
13 | LB831-BLC (bladder, adherent) | 0.952 | < 5.59 | 0.958 | < 4.99 | 0.933 | < 2.70
14 | NCI-H1694 (small cell lung carcinoma, suspension) | 0.989 | < 5.59 | 0.864 | 5.05 | 0.917 | < 2.70
15 | CCF-STTG1 (glioma, adherent) | 0.88 | < 5.59 | 0.98 | < 4.99 | 0.894 | < 2.70
16 | YT (lymphoid neoplasm, suspension) | 0.95 | < 5.59 | 0.658 | 5.79 | 0.988 | < 2.70
17 | CAL-29 (bladder, adherent) | 0.887 | < 5.59 | 0.82 | 5.19 | 0.882 | < 2.70
18 | NCI-H187 (small cell lung carcinoma, suspension) | 0.982 | < 5.59 | 0.86 | 5.01 | 0.872 | < 2.70
19 | SHP-77 (small cell lung carcinoma, semi-adherent) | 0.957 | < 5.59 | 0.927 | < 4.99 | 0.953 | < 2.70

Row | Cell Line | AUC (AKT inhibitor VIII; [1]) | pIC50 (AKT inhibitor VIII; [1]) | AUC (AKT inhibitor VIII; [2]) | pIC50 (AKT inhibitor VIII; [2]) | AUC (AICAR) | pIC50 (AICAR)
20 | UACC-62 (melanoma, adherent) | 0.936 | < 5.59 | 0.97 | < 4.99 | 0.864 | 2.77
21 | KMS-12-BM (myeloma, suspension) | 0.968 | < 5.59 | 0.735 | 5.59 | 0.669 | 3.47
22 | COLO-680N (oesophagus, adherent) | 0.92 | < 5.59 | 0.965 | < 4.99 | 0.755 | 3.10
23 | NCI-H1304 (small cell lung carcinoma, suspension) | 0.982 | < 5.59 | 0.919 | < 4.99 | 0.81 | 2.94
24 | JHU-022 (head and neck, adherent) | 0.982 | < 5.59 | 0.925 | < 4.99 | 0.758 | 3.06
25 | HT (B-cell lymphoma, suspension) | 0.962 | < 5.59 | 0.841 | 5.20 | 0.862 | 2.83
26 | EW-3 (Ewing sarcoma, adherent) | 0.897 | < 5.59 | 0.76 | 5.39 | 0.88 | < 2.70
27 | TE-9 (oesophagus, adherent) | 0.97 | < 5.59 | 0.966 | < 4.99 | 0.91 | < 2.70
28 | SNG-M (endometrium, adherent) | 0.952 | < 5.59 | 0.914 | < 4.99 | 0.935 | < 2.70
29 | SNU-449 (liver, adherent) | 0.973 | < 5.59 | 0.734 | 5.50 | 0.899 | < 2.70
30 | NCI-H1792 (lung adenocarcinoma, adherent) | 0.968 | < 5.59 | 0.805 | 5.34 | 0.857 | 2.86
31 | COLO-783 (melanoma, adherent) | 0.99 | < 5.59 | 0.963 | < 4.99 | 0.988 | < 2.70
32 | RVH-421 (melanoma, adherent) | 0.941 | < 5.59 | 0.808 | 5.11 | 0.937 | < 2.70
33 | OACM5-1 (oesophagus, semi-adherent) |  |  | 0.591 | 5.93 | 0.894 | < 2.70
34 | NCI-H441 (lung adenocarcinoma, adherent) | 0.964 | < 5.59 | 0.935 | < 4.99 | 0.85 | < 2.70
35 | MY-M12 (leukaemia, suspension) | 0.863 | < 5.59 | 0.721 | 5.53 | 0.544 | 3.77
36 | HCC1419 (breast, adherent) | 0.848 | < 5.59 | 0.727 | 5.42 | 0.852 | < 2.70
37 | JHH-6 (liver, adherent) | 0.911 | < 5.59 | 0.987 | < 4.99 | 0.665 | 3.44
38 | SLVL (B-cell lymphoma, suspension) | 0.957 | < 5.59 | 0.718 | 5.56 | 0.774 | 3.08
